Reference: PMC12820563, “FoxP3 forms a head-to-head dimer in vivo and stabilizes its multimerization on adjacent microsatellites”
This is one part of the list.

Molecular target: T1, MBP-FoxP1dN (Mus musculus, UniProt P58462 326-579)
T1 sequence: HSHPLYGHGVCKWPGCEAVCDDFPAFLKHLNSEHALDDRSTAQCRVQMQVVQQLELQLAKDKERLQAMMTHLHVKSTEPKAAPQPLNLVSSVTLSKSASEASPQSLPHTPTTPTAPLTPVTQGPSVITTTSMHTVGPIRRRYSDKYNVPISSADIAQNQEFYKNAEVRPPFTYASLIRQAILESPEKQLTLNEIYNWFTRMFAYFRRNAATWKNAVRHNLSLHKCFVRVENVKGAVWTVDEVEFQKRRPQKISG
Assay: PD-seq (MBP pull-down with sequencing); 20 mM Tris-HCl pH 7.5, 100 mM NaCl, 1.5 mM MgCl2, 0.4 uM protein, 0.1 uM dsDNA library, 30 min, room temperature, amylose pull-down; high values mean tight binding
Conditions: protein: recombinant; tags: His6-MBP; chain copies: 2; dsDNA, one strand shown
How it was run: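 Binding is given as reads-per-million enrichment, pull-down over input, with replicates pooled. The bait was an N-terminus-lacking mouse FoxP3 or FoxP1 fragment with a His6-MBP tag, expressed in E. coli and used at 0.4 µM with 0.1 µM Klenow-filled degenerate double-stranded DNA library for 30 min at room temperature in Tris pH 7.5 buffer with NaCl and MgCl2. Amylose resin pull-down with three washes was followed by proteinase K release, PCR barcoding and Illumina sequencing.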

Sequence | binding signal
GATGATTGTTCTCCCAGCTGATGAATTAGGAAAGTCGAGTAAACAAATTTTCCTAATCTTTCTGTTCAAGCGCCATCTAC | 0.866 RPM ratio (pull-down/input)
GATGATTGTTCTCCCAGCTGATGAATTTTGATGATCGAGTAAACAAATTTTCCTAATCTTTCTGTTCAAGCGCCATCTAC | 1.25 RPM ratio (pull-down/input)
GATGATTGTTCTCCCAGCTGATGAATTAGGACATTCGAGTAAACAAATTTTCCTAATCTTTCTGTTCAAGCGCCATCTAC | 0.907 RPM ratio (pull-down/input)
GATGATTGTTCTCCCAGCTGATGAATTATGATCGTCGAGTAAACAAATTTTCCTAATCTTTCTGTTCAAGCGCCATCTAC | 0.955 RPM ratio (pull-down/input)
GATGATTGTTCTCCCAGCTGATGAATTCACTATCTCGAGTAAACAAATTTTCCTAATCTTTCTGTTCAAGCGCCATCTAC | 0.823 RPM ratio (pull-down/input)
GATGATTGTTCTCCCAGCTGATGAATTCATGGGTTCGAGTAAACAAATTTTCCTAATCTTTCTGTTCAAGCGCCATCTAC | 0.828 RPM ratio (pull-down/input)
GATGATTGTTCTCCCAGCTGATGAATTTCGTGGTTCGAGTAAACAAATTTTCCTAATCTTTCTGTTCAAGCGCCATCTAC | 0.868 RPM ratio (pull-down/input)
GATGATTGTTCTCCCAGCTGATGAATTGGAACCATCGAGTAAACAAATTTTCCTAATCTTTCTGTTCAAGCGCCATCTAC | 0.908 RPM ratio (pull-down/input)
GATGATTGTTCTCCCAGCTGATGAATTAATTCAATCGAGTAAACAAATTTTCCTAATCTTTCTGTTCAAGCGCCATCTAC | 0.961 RPM ratio (pull-down/input)
GATGATTGTTCTCCCAGCTGATGAATTGGACTCATCGAGTAAACAAATTTTCCTAATCTTTCTGTTCAAGCGCCATCTAC | 0.851 RPM ratio (pull-down/input)
GATGATTGTTCTCCCAGCTGATGAATTTACCCCGTCGAGTAAACAAATTTTCCTAATCTTTCTGTTCAAGCGCCATCTAC | 1.07 RPM ratio (pull-down/input)
GATGATTGTTCTCCCAGCTGATGAATTTCCGGGTTCGAGTAAACAAATTTTCCTAATCTTTCTGTTCAAGCGCCATCTAC | 0.836 RPM ratio (pull-down/input)
GATGATTGTTCTCCCAGCTGATGAATTGTTCAAATCGAGTAAACAAATTTTCCTAATCTTTCTGTTCAAGCGCCATCTAC | 1.24 RPM ratio (pull-down/input)
GATGATTGTTCTCCCAGCTGATGAATTAGGGGCGTCGAGTAAACAAATTTTCCTAATCTTTCTGTTCAAGCGCCATCTAC | 0.879 RPM ratio (pull-down/input)
GATGATTGTTCTCCCAGCTGATGAATTTGAGTACTCGAGTAAACAAATTTTCCTAATCTTTCTGTTCAAGCGCCATCTAC | 0.865 RPM ratio (pull-down/input)
GATGATTGTTCTCCCAGCTGATGAATTTCGCGAATCGAGTAAACAAATTTTCCTAATCTTTCTGTTCAAGCGCCATCTAC | 0.891 RPM ratio (pull-down/input)
GATGATTGTTCTCCCAGCTGATGAATTATGTTTCTCGAGTAAACAAATTTTCCTAATCTTTCTGTTCAAGCGCCATCTAC | 1.46 RPM ratio (pull-down/input)
GATGATTGTTCTCCCAGCTGATGAATTCTGTTTATCGAGTAAACAAATTTTCCTAATCTTTCTGTTCAAGCGCCATCTAC | 2.76 RPM ratio (pull-down/input)
GATGATTGTTCTCCCAGCTGATGAATTTTATCCTTCGAGTAAACAAATTTTCCTAATCTTTCTGTTCAAGCGCCATCTAC | 0.87 RPM ratio (pull-down/input)
GATGATTGTTCTCCCAGCTGATGAATTGCCCACGTCGAGTAAACAAATTTTCCTAATCTTTCTGTTCAAGCGCCATCTAC | 0.92 RPM ratio (pull-down/input)

Sequence | binding signal
GATGATTGTTCTCCCAGCTGATGAATTCCCGCCATCGAGTAAACAAATTTTCCTAATCTTTCTGTTCAAGCGCCATCTAC | 0.843 RPM ratio (pull-down/input)
GATGATTGTTCTCCCAGCTGATGAATTACTAAATTCGAGTAAACAAATTTTCCTAATCTTTCTGTTCAAGCGCCATCTAC | 1.27 RPM ratio (pull-down/input)
GATGATTGTTCTCCCAGCTGATGAATTGTCAGCGTCGAGTAAACAAATTTTCCTAATCTTTCTGTTCAAGCGCCATCTAC | 0.925 RPM ratio (pull-down/input)
GATGATTGTTCTCCCAGCTGATGAATTTGAAGACTCGAGTAAACAAATTTTCCTAATCTTTCTGTTCAAGCGCCATCTAC | 0.825 RPM ratio (pull-down/input)
GATGATTGTTCTCCCAGCTGATGAATTACACCCGTCGAGTAAACAAATTTTCCTAATCTTTCTGTTCAAGCGCCATCTAC | 1.08 RPM ratio (pull-down/input)
GATGATTGTTCTCCCAGCTGATGAATTCACCGCGTCGAGTAAACAAATTTTCCTAATCTTTCTGTTCAAGCGCCATCTAC | 0.877 RPM ratio (pull-down/input)
GATGATTGTTCTCCCAGCTGATGAATTCACCACATCGAGTAAACAAATTTTCCTAATCTTTCTGTTCAAGCGCCATCTAC | 1.12 RPM ratio (pull-down/input)
GATGATTGTTCTCCCAGCTGATGAATTAGTAGTATCGAGTAAACAAATTTTCCTAATCTTTCTGTTCAAGCGCCATCTAC | 1.2 RPM ratio (pull-down/input)
GATGATTGTTCTCCCAGCTGATGAATTTACGGGCTCGAGTAAACAAATTTTCCTAATCTTTCTGTTCAAGCGCCATCTAC | 0.923 RPM ratio (pull-down/input)
GATGATTGTTCTCCCAGCTGATGAATTGGCGGAGTCGAGTAAACAAATTTTCCTAATCTTTCTGTTCAAGCGCCATCTAC | 0.75 RPM ratio (pull-down/input)
GATGATTGTTCTCCCAGCTGATGAATTGGGGCGGTCGAGTAAACAAATTTTCCTAATCTTTCTGTTCAAGCGCCATCTAC | 0.782 RPM ratio (pull-down/input)
GATGATTGTTCTCCCAGCTGATGAATTGAGTCCTTCGAGTAAACAAATTTTCCTAATCTTTCTGTTCAAGCGCCATCTAC | 0.846 RPM ratio (pull-down/input)
GATGATTGTTCTCCCAGCTGATGAATTGTAATAATCGAGTAAACAAATTTTCCTAATCTTTCTGTTCAAGCGCCATCTAC | 1.35 RPM ratio (pull-down/input)
GATGATTGTTCTCCCAGCTGATGAATTTGAACGCTCGAGTAAACAAATTTTCCTAATCTTTCTGTTCAAGCGCCATCTAC | 0.822 RPM ratio (pull-down/input)
GATGATTGTTCTCCCAGCTGATGAATTAAGATGGTCGAGTAAACAAATTTTCCTAATCTTTCTGTTCAAGCGCCATCTAC | 0.87 RPM ratio (pull-down/input)
GATGATTGTTCTCCCAGCTGATGAATTGTCATGGTCGAGTAAACAAATTTTCCTAATCTTTCTGTTCAAGCGCCATCTAC | 0.998 RPM ratio (pull-down/input)
GATGATTGTTCTCCCAGCTGATGAATTTAGTTAGTCGAGTAAACAAATTTTCCTAATCTTTCTGTTCAAGCGCCATCTAC | 1.11 RPM ratio (pull-down/input)
GATGATTGTTCTCCCAGCTGATGAATTATCCTGGTCGAGTAAACAAATTTTCCTAATCTTTCTGTTCAAGCGCCATCTAC | 0.874 RPM ratio (pull-down/input)
GATGATTGTTCTCCCAGCTGATGAATTCACCCGGTCGAGTAAACAAATTTTCCTAATCTTTCTGTTCAAGCGCCATCTAC | 0.783 RPM ratio (pull-down/input)
GATGATTGTTCTCCCAGCTGATGAATTGTAACTTTCGAGTAAACAAATTTTCCTAATCTTTCTGTTCAAGCGCCATCTAC | 1.15 RPM ratio (pull-down/input)
